Source: publication PMC12040169 (PLOS Biology, 2025)
This is one part of the list.

test system: T1, C. trachomatis L2/434/Bu expressing GFP (CTL2-GFP); parameters: species or system HeLa; C. trachomatis total inclusion area by high-content imaging, normalised to DMSO; conditions: total inclusion area; 28.5 h, 10 µM; inhibitor
T1 construct: L2/434/Bu GFP intracellular growth in HeLa cells
In short: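 Post-fluorescence-read fixation, DNA staining with Hoechst and high-content imaging; GFP inclusion area and number per well, and nuclei counts, used as proxies for bacterial growth and host viability.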

Compound | % of control remaining
O=C(Nc1nnc(-c2ccccc2)o1)c1nc2ccccc2s1 [CBK287595] | 112.021
O=C(NCc1ccc(F)cc1)c1ccc(=O)n(CC(=O)N2CCC3(CCCCC3)C2)c1 [CBK286021] | 92.7528
COCCNC(=O)Cn1c(-c2cccs2)cc2cccnc21 [CBK282554] | 91.4902
COCCn1ccc(NC(=O)N2CCCC(c3cc(F)ccc3F)C2)n1 (stereo not shown) [CBK305451] | 55.9616
COc1ccc(-c2c(C(F)(F)F)oc3cc(OC(=O)c4cccc(C)c4)ccc3c2=O)cc1OC [CBK263907] | 101.097
CN1CCN(C(=O)c2[nH]c3ccccc3c2NS(=O)(=O)Cc2ccccc2[N+](=O)[O-])CC1 [CBK050059] | 85.7301
COc1cc(Nc2nc(-c3ccccc3F)cn3ccnc23)cc(OC)c1OC [CBK037301] | 87.7237
COc1ccc(CNC(=O)Cn2nnc(-c3ccc(NC(=O)C4CCCCC4)cc3)n2)cc1 [CBK135876] | 85.9653
OCCN1CCN(c2nccnc2-c2cccs2)CC1 [CBK088811] | 89.5176
OC[C@H]1OCC[C@H]1O [CBK201263] | 85.7333
Cc1c(Cl)cccc1S(=O)(=O)Nc1ccsc1C(=O)O [CBK004549] | 100.085
COc1ccc([C@H](O)[C@@H]2CCCN(C(=O)OC(C)(C)C)C2)cc1 [CBK284311] | 81.7532
CS(=O)(=O)N[C@H]1C[C@H]2C(=O)Nc3cc(Cl)ccc3C(=O)N2C1 [CBK289363] | 101.883
CN(C)CCNC(=O)c1ccc2[nH]ccc2c1 [CBK149062] | 89.8032
Nc1ncc(-c2ccoc2)nc1-c1ccc(F)c(Cl)c1 [CBK063982] | 130.186
COCc1cccc(-c2nccnc2OCC(=O)OC)c1 [CBK106976] | 91.3652
Cc1cccc(C(=O)N2CCCC(C)C2)c1 (stereo not shown) [CBK074057] | 82.7936
CC(NC(=O)N(Cc1ccccc1C(F)(F)F)CC(C)(C)CN)c1cccc2ccccc12 (stereo not shown) [CBK002422C] | 44.7798
COc1ccccc1CNC(=O)c1cc(-c2ccccc2)nc2ccccc12 [CBK294458] | 109.658
CN(C)CCCN(Cc1cnn(C)c1)Cc1ccco1 [CBK283039] | 88.7432
C[C@H](NC(=O)C1CC(=O)N(c2ccc(F)cc2)C1)C(=O)N1CCC(C(=O)O)CC1 (stereo partly shown) [CBK286733] | 79.5258

Compound | % of control remaining
CS(=O)(=O)Nc1nccnc1OC1CCN(CCCC#N)CC1 [CBK084276] | 91.2465
Oc1ccc(/C=N/N(Cc2ccccc2)Cc2ccccc2)cc1 [CBK261414] | 77.879
Cc1ccc(N(CC(=O)Nc2cccc3cccnc23)S(=O)(=O)c2ccc(C)cc2)cc1 [CBK262201] | 85.5426
CN(C)S(=O)(=O)c1cccc(C(=O)NCCc2ccccc2)c1 [CBK267793] | 120.1
Cc1cc2cc(CN(CC3CCCO3)C(=O)C3CC3)c(Cl)nc2cc1C (stereo not shown) [CBK109881] | 62.9902
CCN1CC(C(=O)N2CCCC(CN(C)C)C2)CC1=O (stereo not shown) [CBK282064] | 78.7918
O=C(CN1CCCC1=O)NC1(C(F)(F)F)NC(=O)N(c2ccc(F)cc2)C1=O (stereo not shown) [CBK268057] | 103.956
CC(CC(=O)O)CC(=O)N1CCCC1c1nc(-c2ccc(F)cc2)c2ccccn12 (stereo not shown) [CBK046626] | 118.675
Cn1c(SCC(=O)Nc2ccccc2[N+](=O)[O-])nc2ccccc2c1=O [CBK265096] | 91.3492
CC(C)Oc1ccc(C(=O)N2CC(C)C(N3CCOCC3)C2)cn1 (stereo not shown) [CBK304497] | 68.1412
O=C1CC(N2CCN(Cc3ccc4c(c3)OCO4)CC2)C(=O)N1c1cc(Cl)cc(Cl)c1 (stereo not shown) [CBK074554] | 94.8419
Nc1ncc(-c2ccc3c(c2)OCO3)nc1Nc1ccc2[nH]ccc2c1 [CBK063667] | 95.8109
OC(COc1cccc2c1CCCC2)CN1CCC(O)(c2ccc(Br)cc2)CC1 (stereo not shown) [CBK003584] | 89.385
CCn1ncc(CN(C)C(=O)CCC2CCCCN2C)c1C (stereo not shown) [CBK307329] | 63.3802
O=C(Cc1nc(-c2ccncc2)n[nH]1)NC1CCCCC1 [CBK288544] | 91.7579
O=C(O)C/N=C1/CCCc2ccccc2N1 [CBK261809] | 91.8173
Cc1ccccc1NC(=O)COc1ccc(S(=O)(=O)N2CCCC2)cc1Cl [CBK268938] | 102.982
O=C(Nc1ccc2cccc(O)c2n1)c1cc[nH]c1 [CBK122743] | 84.5934
CC(C)(O)c1cc(CC2(NCc3ccco3)COC2)no1 [CBK289255] | 110.061
O=C(c1ccncc1)N1CCCn2nc(-c3cccnc3)cc2C1 [CBK288607] | 104.616
O=S(=O)(Nc1ccc2nsnc2c1)c1ccc(Br)cc1C(F)(F)F [CBK062233] | 111.148

Compound | % of control remaining
OC(CSc1ncnc2sc3c(c12)CCC3)Cn1cccn1 (stereo not shown) [CBK304149] | 43.7924
CC(=O)NC1(c2ccccc2F)CCN(c2ncc(-c3ccco3)c(-c3ccco3)n2)CC1 [CBK286428] | 97.7161
CC(C)c1ccc(S(=O)(=O)NCCC2CCN(Cc3ccccc3)CC2)cc1 [CBK043456] | 57.6525
Cc1nn(C)cc1CN1CCN(C(=S)NCCc2ccccc2)CC1 [CBK267069] | 90.861
Cn1nccc1C1CCN(Cc2ccc(Oc3cnccn3)cc2)CC1 [CBK306400] | 79.8855
S=c1[nH]nc2sc3ccccc3n12 [CBK018156] | 100.194
CN(CC1(C)COC1)C(=O)Cc1cccc2cccnc12 [CBK281963] | 85.5085
O=C(Nc1cnn(C23CC4CC(CC(C4)C2)C3)c1)c1cnn2c(C(F)(F)F)cc(-c3ccco3)nc12 [CBK268538] | 51.0274
Cc1cc(C)nc(N2CCN(CCC(=O)O)CC2)n1 [CBK287272] | 101.055
Cc1nn2c(c1-c1ccno1)CCCCC2 [CBK007505] | 83.3032
O=C(Cn1ncc2cccn2c1=O)NCc1ccc(F)cc1 [CBK283851] | 87.6095
CCSC1=C(C#N)C(=O)NC(c2ccccc2O)S1 (stereo not shown) [CBK293971] | 82.6665
O=C(O)CCC(NC(=O)c1ccc(-c2ccc(F)cc2)s1)C(=O)O (stereo not shown) [CBK295172] | 106.182
O=C(COc1ccc(S(=O)(=O)N2CCCCC2)cc1Cl)Nc1ccc2c(c1)OCCO2 [CBK269540] | 105.77
CC1CCCN(Cc2nc3c(c(=O)n(C)c(=O)n3C)n2CC(N)=O)C1 (stereo not shown) [CBK306064] | 73.2363
CCCCc1c(O)c2ccccc2n(Cc2ccccc2)c1=O [CBK219416] | 104.193
CNS(=O)(=O)c1ccc2c3c(cccc13)C(=O)N2 [CBK287275] | 110.868
CCOc1ccc(-c2cc(C(=O)Nc3cccc(C(=O)O)c3)no2)cc1 [CBK299776] | 81.2106
Cc1ccc(NC(=O)CCN2C(=O)c3cccc([N+](=O)[O-])c3C2=O)c(Br)c1 [CBK263172] | 102.712
C=CCNc1nccnc1-c1cccc(O)c1 [CBK088505] | 101.785
O=C(CSc1ccc(Br)cc1)NCc1ccco1 [CBK269701] | 88.8995

Compound | % of control remaining
CN(C)c1ccc(-n2ncc(-c3ccsc3)n2)cc1 [CBK112845] | 108.953
Cc1ccc(CNC(=O)CSc2nc(N)n[nH]2)cc1 [CBK267914] | 107.278
NC(=O)c1cccc(-c2nccnc2NCCO)c1 [CBK088993] | 115.53
COc1cccc(CNc2ccc(-c3nc4ncccc4o3)cc2)c1OC [CBK269716] | 94.8945
c1ccc(-c2nc3ccccc3nc2N2CCNCC2)cc1 [CBK269574C] | 102.242
Cc1ccc2c(c1)N(CCO)C(C)(C)CC2C (stereo not shown) [CBK006567] | 30.2253
CS(=O)(=O)N1CCN(c2ccc(NC(=O)CSc3nc(-c4ccccc4)cs3)cc2)CC1 [CBK267934] | 104.785
CC(C)(C)SCC(=O)c1ccc2c(c1)CCC(=O)N2 [CBK006168] | 55.9702
Nc1ncc(-c2ccsc2)c2cccnc12 [CBK067580] | 126.488
COc1ccc(-c2csc(CC(=O)O)n2)cc1 [CBK159469] | 94.9338
CC(=O)c1cccc(NC(=O)Cn2ncc(N3CCCC3)c(Cl)c2=O)c1 [CBK304395] | 127.068
CC1(C)CC(NC(=O)C23CCC(C)(c4nc5ccccc5nc42)C3(C)C)CC(C)(C)N1 (stereo not shown) [CBK266559] | 124.017
O=C(CC1SC(NC2CC3C=CC2C3)=NC1=O)NCc1ccccc1 (stereo not shown) [CBK049940] | 77.6409
CCOC(=O)C(CO)NC(=O)c1cncc(Br)c1 (stereo not shown) [CBK263926] | 110.546
O=C1NC/C=C/CC2(CCN(C(=O)c3cccnn3)CC2)C(=O)NCCOc2ccccc21 [CBK292095] | 78.3039
O=S(=O)(Nc1cccc(Br)c1)c1ccc(OC(F)(F)F)cc1 [CBK044369] | 104.772
Cc1ncccc1COC(=O)N1CCCC(F)C1 (stereo not shown) [CBK200155] | 114.016
C[C@@H]1CC(=O)CCC1NC(=O)c1ccccc1 (stereo partly shown) [CBK017832] | 50.441
COC(=O)CN1C(=O)S/C(=C/c2cc(C)n(-c3ccc(S(N)(=O)=O)cc3)c2C)C1=O [CBK265249] | 89.2545
